Assay results reported in patent publication US11866720B2, “Transgenic or non-transgenic plants with mutated protoporphyrinogen oxidase having increased tolerance to herbicides” (priority 2013, dated 2024).
“And” between values parts separate entries of the source, which are not always exact repeats. Equal entries are not always repeated.

Test system: transgenic Arabidopsis thaliana plants expressing wildtype or mutated PPO
Assay: Greenhouse tolerance test of transgenic T1 Arabidopsis plants (phytotox / injury rating 0-100)
Type: in vivo

Structure (SMILES) | phytotox value, scale 0-100 (AMATU_PPO2 L397D_F420V, repetitions 1, 2, 200 g ai/ha) | phytotox value, scale 0-100 (AMATU_PPO2 R128A_F420V, repetitions 1, 2, 100 g ai/ha) | phytotox value, scale 0-100 (ARBTH WT, 50 g ai/ha) | phytotox value, scale 0-100 (ARBTH WT, 100 g ai/ha) | phytotox value, scale 0-100 (ARBTH WT, 200 g ai/ha) | phytotox value, scale 0-100 (AMATU_PPO2 F420V, repetitions 1, 2, 50 g ai/ha, listed as Kixor) | phytotox value, scale 0-100 (AMATU_PPO2 F420V, repetitions 1, 2, 100 g ai/ha, listed as Kixor) | phytotox value, scale 0-100 (AMATU_PPO2 L397D, repetitions 1, 2, 50 g ai/ha, listed as Kixor) | phytotox value, scale 0-100 (AMATU_PPO2 L397D, repetitions 1, 2, 100 g ai/ha, listed as Kixor) | phytotox value, scale 0-100 (AMATU_PPO2 L397D, repetitions 1, 2, 200 g ai/ha, listed as Kixor) | phytotox value, scale 0-100 (AMATU_PPO2 F420V, repetitions 1, 2, 75 g ai/ha, listed as BAS 850H) | phytotox value, scale 0-100 (AMATU_PPO2 F420V, repetitions 1, 2, 150 g ai/ha, listed as BAS 850H) | phytotox value, scale 0-100 (AMATU_PPO2 F420V, repetitions 1, 2, 300 g ai/ha, listed as BAS 850H) | phytotox value, scale 0-100 (AMATU_PPO2 L397D, repetitions 1, 2, 150 g ai/ha, listed as BAS 850H) | phytotox value, scale 0-100 (AMATU_PPO2 R128A_F420V, repetitions 1, 2, 300 g ai/ha, listed as BAS 850H) | phytotox value, scale 0-100 (ARBTH WT, 75 g ai/ha) | phytotox value, scale 0-100 (ARBTH WT, 150 g ai/ha) | phytotox value, scale 0-100 (ARBTH WT, 300 g ai/ha)
Cc1nn(-c2cc(CC(Cl)C(=O)O)c(Cl)cc2F)c(=O)n1C(F)F (stereo not drawn) [Carfentrazone] | 20 and 10 | 10 | 100 | 100 | 100 | – | – | – | – | – | – | – | – | – | – | – | – | –
CC(C)N(C)S(=O)(=O)NC(=O)c1cc(-n2c(=O)cc(C(F)(F)F)n(C)c2=O)c(F)cc1Cl [Saflufenacil, saflufenacil] | – | – | 100 | 100 | 100 | 50 and 30 | 65 and 70 | 65 and 50 and 70 | 85 and 80 | 95 and 85 and 90 | – | – | – | – | – | – | – | –
C#CCN1C(=O)C(F)(F)Oc2cc(F)c(-n3c(=O)n(C)c(=S)n(C)c3=O)cc21 | – | – | – | – | – | – | – | – | – | – | 30 and 40 | 60 and 40 and 65 | 70 and 50 and 40 | 75 and 70 | 30 and 20 | 100 | 100 | 100
